The other results are listed elsewhere or left out. The full chains were built here from the parent and the listed change. Values near 0.05 are background.
B1: TEV protease; numbered along this chain (parent)
chain: MGESLFKGPRDYNPISSSICHLTNESDGHTTSLYGIGFGPFIITNKHLFRRNNGTLVVQSLHGVFKVKDTTTLQQHLVDGRDMIIIRMPKDFPPFPQKLKFREPQREERICLVTTNFQTKSMSSMVSDTSCTFPSGDGIFWKHWIQTKDGQCGSPLVSTRDGFIVGIHSASNFTNTNNYFTSVPKNFMELLTNQEAQQWVSGWRLNADSVLWGGHKVFMVKPEEPFQPVKEATQL

Variants of: B1
Assay: raw area under fraction-flipped curve 0-4 h after induction (AUC4h, not background-subtracted), DNA-recorder readout of cleavage of the substrate (dimensionless); higher = more cleavage of the substrate by the protease variant
Details: temperature: 34 °C; time window: 0-4 h after rhamnose induction
Procedure: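 In vivo DNA recorder in E. coli TOP10(DE3) ΔrhaA at 34 °C. Each TEVp single-site mutant (parent TEVp 0) is paired with a single-site variant of the 7-mer TEVs (canonical ENLYFQ|S). The substrate sits between flexible linkers in a Bxb1-sfGFP-TEVs-SsrA fusion, so cleavage stabilises Bxb1 and speeds flipping of a recombination array, read by NGS. The value is the raw area under the fraction-flipped curve over 0-4 h after rhamnose induction (AUC4h), with ≥20 reads per time point. It is not background-subtracted; inactive controls average about 0.047.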
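Also: Bxb1 expression induced with 0.2% (w/v) L-rhamnose at OD600 near 0.5, cultures sampled hourly, flipped fraction per protease–substrate barcode pair counted by paired-end Illumina sequencing.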

Row | Variant | area with substrate ANLYFQS | area with substrate CNLYFQS | area with substrate DNLYFQS | area with substrate FNLYFQS | area with substrate HNLYFQS | area with substrate INLYFQS | area with substrate LNLYFQS | area with substrate MNLYFQS | area with substrate NNLYFQS | area with substrate PNLYFQS | area with substrate SNLYFQS | area with substrate TNLYFQS | area with substrate VNLYFQS | area with substrate GNLYFQS | area with substrate WNLYFQS | area with substrate YNLYFQS | area with substrate KNLYFQS | area with substrate RNLYFQS | area with substrate QNLYFQS
1 | MGESLFKGPRDYNPISSSICHLTNESDGHTTSLYGIGFGPFIITNKHLFRRNNGTLVVQSLHGVFKVKDSTTLQQHLVDGRDMIIIRMPKDFPPFPQKLKFREPQREERICLVTTNFQTKSMSSMVSDTSCTFPSGDGIFWKHWIQTKDGQCGSPLVSTRDGFIVGIHSASNFTNTNNYFTSVPKNFMELLTNQEAQQWVSGWRLNADSVLWGGHKVFMVKPEEPFQPVKEATQL [T70S] | 0.0749 | 0.0652 | 0.0721 | 0.0621 | 0.0723 | 0.0813 | 0.0758 | 0.067 | 0.0482 | 0.0925 | 0.0747 | 0.0745 | 0.0656 |  |  |  |  |  | 
2 | MGESLFKGPRDYNPISSSICHLTNESDGHTTSLYGIGFGPFIITNKHLFRRNNGTLVVQSLHGVFPVKDTTTLQQHLVDGRDMIIIRMPKDFPPFPQKLKFREPQREERICLVTTNFQTKSMSSMVSDTSCTFPSGDGIFWKHWIQTKDGQCGSPLVSTRDGFIVGIHSASNFTNTNNYFTSVPKNFMELLTNQEAQQWVSGWRLNADSVLWGGHKVFMVKPEEPFQPVKEATQL [K66P] | 0.0619 | 0.0579 | 0.0746 | 0.0672 | 0.0647 | 0.0341 |  | 0.0604 | 0.0585 |  |  | 0.0607 |  | 0.055 | 0.0599 | 0.0618 |  |  | 
3 | MGESLFKGPRDYNPISSSICHLTNESDGHTTSLYGIGFGPFIITNKHLFRRNNGTLVVQSLHGVFKVKDTTTLQQHNVDGRDMIIIRMPKDFPPFPQKLKFREPQREERICLVTTNFQTKSMSSMVSDTSCTFPSGDGIFWKHWIQTKDGQCGSPLVSTRDGFIVGIHSASNFTNTNNYFTSVPKNFMELLTNQEAQQWVSGWRLNADSVLWGGHKVFMVKPEEPFQPVKEATQL [L77N] | 0.0652 | 0.0564 | 0.0583 | 0.0601 | 0.0589 | 0.0799 | 0.0596 |  | 0.0589 | 0.058 | 0.061 | 0.0559 | 0.0805 | 0.0463 | 0.0537 | 0.0505 | 0.0588 |  | 
4 | MGESLFKGPRDYNPISSSICHLTNESDGHTTSLYGIGFGPFIITNKHLFRRNNGTLVVQSLHGVFKVKDTTTLQQHSVDGRDMIIIRMPKDFPPFPQKLKFREPQREERICLVTTNFQTKSMSSMVSDTSCTFPSGDGIFWKHWIQTKDGQCGSPLVSTRDGFIVGIHSASNFTNTNNYFTSVPKNFMELLTNQEAQQWVSGWRLNADSVLWGGHKVFMVKPEEPFQPVKEATQL [L77S] | 0.0458 | 0.0575 | 0.0434 | 0.0624 | 0.0664 |  |  | 0.0564 |  | 0.0621 | 0.0624 | 0.0688 |  | 0.0602 | 0.0556 | 0.0589 | 0.0763 | 0.0641 | 
5 | MGESLFKGPRDYNPISSSICHLTNESDGHTTSLYGIGFGPFIITNKHLFRRNNGTLVVQSLHGVFKVKDTTTLVQHLVDGRDMIIIRMPKDFPPFPQKLKFREPQREERICLVTTNFQTKSMSSMVSDTSCTFPSGDGIFWKHWIQTKDGQCGSPLVSTRDGFIVGIHSASNFTNTNNYFTSVPKNFMELLTNQEAQQWVSGWRLNADSVLWGGHKVFMVKPEEPFQPVKEATQL [Q74V] | 0.0679 | 0.067 | 0.0647 |  | 0.0581 | 0.0592 | 0.0595 | 0.0569 | 0.0453 | 0.047 | 0.062 |  |  | 0.0654 | 0.0627 | 0.0505 | 0.066 |  | 0.069
6 | MGESLFKGPRDYNPISSSICHLTNESDGHTTSLYGIGFGPFIITNKHLFRRNNGTLVVQSLHGVFKVKDTTDLQQHLVDGRDMIIIRMPKDFPPFPQKLKFREPQREERICLVTTNFQTKSMSSMVSDTSCTFPSGDGIFWKHWIQTKDGQCGSPLVSTRDGFIVGIHSASNFTNTNNYFTSVPKNFMELLTNQEAQQWVSGWRLNADSVLWGGHKVFMVKPEEPFQPVKEATQL [T72D] | 0.0673 | 0.0686 | 0.0925 | 0.0498 | 0.057 |  | 0.0696 | 0.0916 | 0.0355 |  | 0.0824 | 0.0684 | 0.0667 | 0.0803 | 0.0641 | 0.0606 | 0.0583 | 0.0444 | 0.0623
7 | MGESLFKGPRDYNPISSSICHLTNESDGHTTSLYGIGFGPFIITNKHLFRRNNGTLVVQSLHGVFKVKWTTTLQQHLVDGRDMIIIRMPKDFPPFPQKLKFREPQREERICLVTTNFQTKSMSSMVSDTSCTFPSGDGIFWKHWIQTKDGQCGSPLVSTRDGFIVGIHSASNFTNTNNYFTSVPKNFMELLTNQEAQQWVSGWRLNADSVLWGGHKVFMVKPEEPFQPVKEATQL [D69W] | 0.0332 | 0.0546 | 0.0685 | 0.0552 | 0.043 |  | 0.0652 |  |  | 0.0565 | 0.0173 |  | 0.0543 |  | 0.0483 |  |  |  | 
8 | MGESLFKGPRDYNPISSSICHLTNESDGHTTSLYGIGFGPFIITNKHLFRRNNGTLVVQSLHGVFKVKLTTTLQQHLVDGRDMIIIRMPKDFPPFPQKLKFREPQREERICLVTTNFQTKSMSSMVSDTSCTFPSGDGIFWKHWIQTKDGQCGSPLVSTRDGFIVGIHSASNFTNTNNYFTSVPKNFMELLTNQEAQQWVSGWRLNADSVLWGGHKVFMVKPEEPFQPVKEATQL [D69L] | 0.0513 | 0.0641 | 0.0976 |  | 0.0591 | 0.0599 |  | 0.0562 | 0.0555 | 0.061 | 0.0584 | 0.0667 | 0.0691 |  | 0.0634 | 0.0674 | 0.0533 | 0.0625 | 0.0703
9 | MGESLFKGPRDYNPISSSICHLTNESDGHTTSLYGIGFGPFIITNKHLFRRNNGTLVVQSLHGVFKVKDTTTLQCHLVDGRDMIIIRMPKDFPPFPQKLKFREPQREERICLVTTNFQTKSMSSMVSDTSCTFPSGDGIFWKHWIQTKDGQCGSPLVSTRDGFIVGIHSASNFTNTNNYFTSVPKNFMELLTNQEAQQWVSGWRLNADSVLWGGHKVFMVKPEEPFQPVKEATQL [Q75C] | 0.0686 | 0.0562 | 0.0891 | 0.0442 | 0.0691 | 0.0777 | 0.0588 | 0.0616 | 0.0796 | 0.0653 | 0.063 | 0.0535 | 0.0622 | 0.0639 | 0.058 |  |  | 0.0546 | 0.0632
